Reference: PubChem BioAssay AID686978 (National Center for Advancing Translational Sciences (NCATS), 2013)
Several values for one entry are separate records, joined by “and”; a condition that tells them apart may be missing. Equal values may be shown once. Out of some 420,000 compounds screened, about 64,000 (15%) were called active. The shares of active, inactive and inconclusive entries below differ from those in the screen. Calls follow the shape of the dose curve; as a rule, active = well fitted inhibition curve with a large enough effect; inconclusive = small, poorly fitted or top-dose-only effect; inactive = flat fitted curve, though single readings scatter. No potency is given beside an inconclusive call; the fits are too rough.

Experiment: qHTS for Inhibitors of human tyrosyl-DNA phosphodiesterase 1 (TDP1): qHTS in cells in absence of CPT; also: nearly all actives have a fitted effect of over 55% in size
Conditions: DT40 Tdp1-/- hTDP1 cells, no CPT, ATP luminescence, 48 h; activity change, negative = growth inhibition: at 46.2 µM (top of the series) unless noted
In short: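 Luminescent ATP content (CellTiter-Glo) served as the growth readout. Knockout chicken DT40 cells expressing human TDP1 were exposed to compounds without camptothecin for a minimum 48 hr at 37 °C.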
% is scaled to controls: 0 for no effect and ±100 for the full control effect; potency is read from the fitted curve at half-maximal effect; tags tell the direction and shape of the fitted curve.

Structure (SMILES) | Potency | activity change, negative = growth inhibition
COc1ccc(C(c2nnnn2C(C)(C)C)N2CCC3(CC2)C(=O)NCN3c2ccccc2)cc1 (stereo not drawn) | inconclusive [inhibitor, single point] | 
c1ccc(OCCSc2nc3ccccc3[nH]2)cc1 | inconclusive [inhibitor, single point] | 
Cc1cc(C)cc(C(=O)N(CCc2ccccc2)C2=CC3CCC(C2)N3C)c1 (stereo not drawn) | inconclusive [inhibitor, single point] | 
Cn1cc(NC(=O)CCl)cn1 | inconclusive [inhibitor, single point] | 
Clc1ccc2c(c1)C(c1ccccc1Cl)=NCc1nnc(N3CCN(CCOc4ccccc4)CC3)n1-2 | active: 16.4 µM | 
CCC(=O)OC1(c2ccccc2)C(C)CN(C)CC1C (stereo not drawn) |  | inactive: -19.8%
C/C(=N\N1CCCCCC1)c1c(O)n(C2CCCCC2)c(=O)[nH]c1=O | inconclusive [inhibitor, single point] | 
CC(C)OP(=O)(OC(C)C)C(Nc1ccccc1)c1cccc2c1OCO2 (stereo not drawn) | inconclusive [inhibitor, single point] | 
CCOC(=O)C1CCCN(C(=O)c2ccc3oc(Cc4ccccc4)nc3c2)C1 (stereo not drawn) | inconclusive [inhibitor, partial curve, poor fit] | 
[Cl][Pt+2][Cl].[NH-]C1CCCCC1[NH-] (stereo not drawn) | active: 5.8 µM | 
O=C1CN(O)C(c2ccccc2Cl)=c2cc(Br)ccc2=N1 | inconclusive [inhibitor, partial curve, poor fit] | 
COc1ccccc1CNCCc1cccc(Cl)c1 | active: 14.6 µM | 
CCc1ccccc1NC(=O)Nc1cc(C(=O)NCc2ccc(C(C)C)cc2)ccc1N1CCCC1 | inconclusive [inhibitor, single point] | 
O=C(C(=O)N1CCOCC1)c1cn(Cc2ccc(F)cc2)c2ccccc12 |  | inactive: 7.89%
C/C(CC(c1ccccc1)c1c(O)c2ccccc2oc1=O)=N\NC(N)=S (stereo not drawn) | inconclusive [inhibitor, single point] | 
c1ccc2sc(C3(N4CCCCC4)CCCCC3)cc2c1 | active: 26.6 µM and active: 18.4 µM | 
CC(=O)c1cn(CCCOc2ccccc2)c2ccccc12 | active: 16.4 µM | 
COc1ccc(CN2CCN(c3ccccc3)CC2)c(C)c1C | inconclusive [inhibitor, single point] | 
COc1cc(OC)c(OC)cc1CNCCc1cccc(F)c1 | inconclusive [inhibitor, single point] | 
c1cc(CN2CCC3(CCNCC3)CC2)ccn1 |  | inactive: -2.35%
N#C/C=C/C#N | inconclusive [inhibitor, single point] | 
NC1CC2CCCCC2CC1(O)c1ccccc1 (stereo not drawn) | inconclusive [inhibitor, single point] | 

Structure (SMILES) | Potency | activity change, negative = growth inhibition
Cc1ccc(N2CCN(CCc3ccccc3)CC2)cc1 | inconclusive [inhibitor, single point] | 
CCS(=O)(=O)C1=NN2C(=N)/C(=C\c3ccc(OC(=O)c4ccco4)cc3)C(=O)N=C2S1 | inconclusive [inhibitor, single point] | 
O=S(=O)(c1cc(Cl)cc(Cl)c1)N1Cc2cc(-c3ccccc3)ccc2-n2nncc2C1 | inconclusive [inhibitor, single point] | 
CCOC(=O)C1SC2(C(F)(F)F)CC1(O)c1c(C)cc(C)nc1O2 (stereo not drawn) |  | inconclusive: -34.2% [inhibitor]
CCN(CC)c1ccc(N=Cc2c(O)n(CCC3=CCCCC3)c(=O)[nH]c2=O)cc1 | inconclusive [inhibitor, single point] | 
C=C[C@@H]1C[C@@]1(C)[C@@H](NP(=O)(c1ccccc1)c1ccccc1)c1ccccc1 | active: 14.6 µM | 
CC(O)C(C)OC(=O)[C@@H]1C[C@@H]2c3cccc4c3c(cn4C(C)C)C[C@H]2N(C)C1 (stereo partly drawn) | inconclusive [inhibitor, single point] | 
CCOc1ccc(C(=O)Nc2ccc3nc(SCC(=O)N4CCCC4)sc3c2)cc1 | inconclusive [inhibitor, partial curve] | 
COc1ccc(-n2nnnc2C(c2cccs2)N2CCC3(CC2)C(=O)NCN3c2ccccc2)cc1 (stereo not drawn) | active: 16.4 µM | 
CC1CCN(c2cc(Br)c([N+](=O)[O-])cc2F)CC1 | inconclusive [inhibitor, single point] | 
Cc1ccccc1C1=NCC(=O)N(CC(=O)N2CCCCC2)c2sc(C)c(C)c21 | inconclusive [inhibitor, single point] | 
Clc1cccc(C2NCc3ccccc3-n3cccc32)c1 (stereo not drawn) | inconclusive [inhibitor, single point] | 
CCOC(=O)[C@]12Cc3cc(C)ccc3[C@H]1N(Cc1ccccc1)C(=O)c1cc(F)c(F)cc12 | active: 14.6 µM | 
COc1cccc(C(C(=O)NCc2ccco2)N(Cc2ccco2)C(=O)Cn2nnc3ccccc32)c1 (stereo not drawn) | inconclusive [inhibitor, single point] | 
CC(C)(C)c1ccc(C(=O)Nc2ccc(Cl)cc2C(=O)c2ccccc2)cc1 |  | inactive: -8.83%
CC1CC2(C)C(=CC1=O)CCC1C3CCC(C)(O)C3(C)CC3OC312 (stereo not drawn) | inconclusive [inhibitor, partial curve] | 
CC(NC(=O)CNC(=S)N(Cc1ccccc1)Cc1cccnc1)c1ccccc1 (stereo not drawn) | inconclusive [inhibitor, single point] | 
Cc1nn(Cc2ccccc2Cl)c(Cl)c1C(=O)OC(C(=O)NC(N)=O)C(C)C (stereo not drawn) | inconclusive [inhibitor, single point] | 
O=C(NC1(C(F)(F)F)Oc2ccccc2O1)N1CCC2(CC1)OCCO2 | inconclusive [inhibitor, single point] | 
COc1cc(NC(=O)CN2C3CCC2CC(O)(c2cccnc2)C3)cc(OC)c1 (stereo not drawn) |  | inactive: -24.1%
O=C(Nc1cc(C(F)(F)F)cc(C(F)(F)F)c1)c1cccn(Cc2ccccc2Cl)c1=O | inconclusive [inhibitor, single point] | 
